Of roughly 21,000 targets only a part is listed; those with the largest changes were picked by preference.
Compound: CC1Cc2ccccc2N1C(=O)C1CCCN(C1)C(=O)CCl (mixture of isomers) [TRIM25 ligand 11 (diastereomer mixture)]
Assay: probe-labelled cysteine peptide fold change vs DMSO (competition) (log2 fold change); higher = less target engagement (more negative = stronger competition)
Details: THP-1, incubation time: 4 h
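Note: competitive chemoproteomic profiling in live THP-1 cells with an iodoacetamide desthiobiotin (IA-DTB) probe, comparing probe-labelled peptide intensities in compound-treated cells against DMSO-treated controls.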

Target	probe-labelled cysteine peptide fold change (10 µM)	probe-labelled cysteine peptide fold change (50 µM)
INTS7_Q9NVH2_42_LGEQCEAVVR (UniProt Q9NVH2)	0.0461	0.0411
ITGB5_P18084_602_DGQICSER (UniProt P18084)	-0.145	0.568
ITGA4_P13612_902_ADPHCLNFLCNFGK (UniProt P13612)	0.0594	0.126
ITGB2_P05107_400_GDCDGVQINVPITFQVK (UniProt P05107)	-0.0868	-0.0224
IPO13_O94829_951_EFTLLCR (UniProt O94829)	0.0121	0.182
KYNU_Q16719_22_CHPTDER (UniProt Q16719)	0.702	0.359
ITPK1_Q13572_137_KIEAYMEDDRICSPPFMELTSLCGDDTMR (UniProt Q13572)	-0.151	0.168
KIF23_Q02241_412_MIVCVNPK (UniProt Q02241)	-0.114	0.268
KIF5B_P33176_421_KCEEEIAK (UniProt P33176)	-0.0979	-0.0437
IDE_P14735_171_FAQFFLCPLFDESCK (UniProt P14735)	0.0536	-0.153
IRF2BP2_Q7Z5L9_40_GCVNYEGADRVEFVIETAR (UniProt Q7Z5L9)	-0.162	0.0536
ITSN2_Q9NZM3_530_QCDLEIMEIK (UniProt Q9NZM3)	-0.0296	-0.0823
JMJD1C_Q15652_990_DCHLHR (UniProt Q15652)	-0.817	-0.482
KDM5B_Q9UGL1_1072_ECAVNTFLTENSPYSLLEVLCPR (UniProt Q9UGL1)	0.276	0.679
ITPR1_Q14643_1805_GEMSLAEVQCHLDK (UniProt Q14643)	0.154	0.0484
IMPA2_O14732_136_QELEFGVIYHCTEER (UniProt O14732)	0.386	0.277
KPNB1_Q14974_158_ESTLEAIGYICQDIDPEQLQDK (UniProt Q14974)	-0.0564	0.109
IRF2BPL_Q9H1B7_385_DTLLTLAGCTPYEVR (UniProt Q9H1B7)	0.111	0.0542
LIG1_P18858_508_QTFCEVPDLDR (UniProt P18858)	0.039	-0.0301
KDM4B_O94953_13_GSEDHGAQNPSCK (UniProt O94953)	-0.105	-0.0685
LRRC8A_Q8IWT6_776_LECLPVELGECPLLK (UniProt Q8IWT6)	-0.489	0.0904
KMT2C_Q8NEZ4_638_HICGEDQIEDK (UniProt Q8NEZ4)	0.0922	0.0478
LRP1B_Q9NZR2_1079_DCEDGSDEK (UniProt Q9NZR2)	0.738	0.352
JAK1_P23458_257_TICDSSVSTHDLK (UniProt P23458)	0.0925	-0.0679
IDH2_P48735_308_SSGGFVWACK (UniProt P48735)	0.0119	0.106
LGALS1_P09382_17_PGECLR (UniProt P09382)	0.188	1

Target	probe-labelled cysteine peptide fold change (10 µM)	probe-labelled cysteine peptide fold change (50 µM)
KLC1_Q07866_236_YEVAVPLCK (UniProt Q07866)	0.0852	0.0881
LRRC8D_Q7L1W4_645_MMNVAELELQNCELER (UniProt Q7L1W4)	0.643	0.269
KLHL26_Q53HC5_38_CTFSAPSHSTSLLQGLATLR (UniProt Q53HC5)	0.348	0.0962
KLHL30_Q0D2K2_231_AAHLPELLSLVHLDAVPRPCVQQLLASEPLIQESEACR (UniProt Q0D2K2)	-0.0164	-0.645
ITGB7_P26010_91_GCPLEELEEPR (UniProt P26010)	-0.0179	-0.0774
KIAA0930_Q6ICG6_269_VSTGDTSPCGTEEDSSPASPMHER (UniProt Q6ICG6)	-0.0849	-0.563
INTS10_Q9NVR2_7_SAQGDCEFLVQR (UniProt Q9NVR2)	-0.504	-0.772
KDM2B_Q8NHM5_991_RPPGICERPHR (UniProt Q8NHM5)	0.0178	-0.0661
ITGA7_Q13683_539+546_SIDLEQPNCAGGHSVCVDLR (UniProt Q13683)	-0.34	-0.672
LRCH1_Q9Y2L9_613_VSLHEDLGAALMDGVVLCHLVNHIRPR (UniProt Q9Y2L9)	-0.0397	-0.122
LDHB_P07195_294_GMYGIENEVFLSLPCILNAR (UniProt P07195)	0.0179	0.0309
INF2_Q27J81_758_QLPIFCQLILR (UniProt Q27J81)	-0.0235	-0.0449
INTS13_Q9NVM9_178_MLEDCVQETIHEHNK (UniProt Q9NVM9)	-0.112	0.0281
ITPRIP_Q8IWB1_268_LGEDMLCLLHGR (UniProt Q8IWB1)	-0.0198	-0.0849
LDHA_P00338_35_ITVVGVGAVGMACAISILMK (UniProt P00338)	-0.464	-0.161
LSM12_Q3MHD2_20_TCQEQR (UniProt Q3MHD2)	0.578	1
KDM2B_Q8NHM5_699_FNLMLMECSICNEIIHPGCLK (UniProt Q8NHM5)	0.13	-0.134
LRRC8A_Q8IWT6_684_IPTQLFYCR (UniProt Q8IWT6)	0.014	0.351
IFIT3_O14879_73_HLDGNNEAALECLR (UniProt O14879)	0.0243	0.181
IP6K2_Q9UHH9_104_GDHGIVDIVDNSDCEPK (UniProt Q9UHH9)	-0.664	-0.28
LARS_Q9P2J5_84_CCLFPFGLHCTGMPIK (UniProt Q9P2J5)	0.114	-0.0329
INF2_Q27J81_104_ISDALLQLTCVSCVR (UniProt Q27J81)	0.553	1.47
KCTD5_Q9NXV2_6_AENHCELLSPAR (UniProt Q9NXV2)	-0.123	-0.666
KPNA5_O15131_427_PLCDLLTVMDSK<|>KPNA6_O60684_427_PLCDLLTVMDSK<|>KPNA1_P52294_429_PLCDLLTVMDSK (UniProt P52294+O60684+O15131)	0.157	0.0185
IFI35_P80217_193_LCQIGQFTVPLGGQQVPLR (UniProt P80217)	0.107	0.228
KMT5C_Q86Y97_231_NEHCECHTCER (UniProt Q86Y97)	0.222	0.00261

Target	probe-labelled cysteine peptide fold change (10 µM)	probe-labelled cysteine peptide fold change (50 µM)
IFT122_Q9HBG6_14_AEHCINDIAFKPDGTQLILAAGSR (UniProt Q9HBG6)	0.0755	0.0225
IRF2BP1_Q8IU81_15_RQWCYLCDLPK (UniProt Q8IU81)	0.192	0.12
LIG3_P49916_499_CPNGMFSEIKYDGER (UniProt P49916)	0.235	0.603
IQGAP1_P46940_57_RWMEACLGEDLPPTTELEEGLR (UniProt P46940)	0.11	-0.0666
KIZ_Q2M2Z5_293_CDSSSGSEGEILTR (UniProt Q2M2Z5)	0.602	-0.285
LRRC59_Q96AG4_48_ATILDLSCNK (UniProt Q96AG4)	-0.0218	-0.245
KPNB1_Q14974_228_HFIMQVVCEATQCPDTR (UniProt Q14974)	0.0558	0.0409
KYAT3_Q6YP21_313_HLQTVQQNTIYTCATPLQEALAQAFWIDIKR (UniProt Q6YP21)	0.0989	-0.0185
IARS_P41252_526_ISEVFDCWFESGSMPYAQVHYPFENK (UniProt P41252)	0.0281	0.112
IPO4_Q8TEX9_962_DNICGALAR (UniProt Q8TEX9)	-0.0165	0.0509
KCTD2_Q14681_192_VLQCQEEELTQMVSTMSDGWK<|>KCTD5_Q9NXV2_163_VLQCQEEELTQMVSTMSDGWK (UniProt Q9NXV2+Q14681)	0.121	-0.118
ILF2_Q12905_37_PFVPHIPFDFYLCEMAFPR (UniProt Q12905)	-0.189	-0.12
INSR_P06213_674_QAEDSELFELDYCLK (UniProt P06213)	-0.0631	-0.267
KDM3B_Q7LBC6_1357_ACNLTDTQK (UniProt Q7LBC6)	0.628	0.354
IQGAP1_P46940_45_QNVAYEYLCHLEEAK (UniProt P46940)	0.174	0.169
ITGB1_P05556_574_SNGLICGGNGVCK (UniProt P05556)	0.0213	0.00706
LPCAT4_Q643R3_206_WPQVLFFPEGTCSNKK (UniProt Q643R3)	0.0291	-0.0279
LENG9_Q96B70_7_GSRPPCGATSSAR (UniProt Q96B70)	0.671	0.504
LRPPRC_P42704_571_YCQEPR (UniProt P42704)	0.0453	0.545
KMT2D_O14686_414_EPGPLQCEAK (UniProt O14686)	-0.0462	-0.238
IFI16_Q16666_351_MDVVGTGQCHNIPCEEGDK (UniProt Q16666)	0.255	0.141
ILK_Q13418_42_LWLDNTENDLNQGDDHGFSPLHWACR (UniProt Q13418)	-0.0686	0.126
IP6K1_Q92551_275_VCGMQVYQLDTGHYLCR (UniProt Q92551)	0.111	-0.0704
KDM2B_Q8NHM5_770_SECEEAPR (UniProt Q8NHM5)	0.0332	0.255

— the supplement of paper PMC12067093, “Discovery and optimisation of a covalent ligand for TRIM25 and its application to targeted protein ubiquitination” (Chemical Science, 2025)
